Test results published in US20080132536A1, “PYRAZOLO [3,4-B] PYRIDINE COMPOUNDS, AND THEIR USE AS PDE4 INHIBITORS” (Glaxo Group Limited, priority 2003, published 2008).
Some results were stated once for a whole list of compounds, not compound by compound.

These molecules were tested against T1, PDE4B (human recombinant) (Homo sapiens, UniProt Q07343) (assay: PDE4B inhibition, radioactive SPA and/or IMAP fluorescence polarisation (FP) assay). Settings: one reading or average of several (ca. 2-6) readings, range given for a group of Examples.
T1 construct: made in house
T1 sequence (Q07343 1-564 isoform Q07343-2): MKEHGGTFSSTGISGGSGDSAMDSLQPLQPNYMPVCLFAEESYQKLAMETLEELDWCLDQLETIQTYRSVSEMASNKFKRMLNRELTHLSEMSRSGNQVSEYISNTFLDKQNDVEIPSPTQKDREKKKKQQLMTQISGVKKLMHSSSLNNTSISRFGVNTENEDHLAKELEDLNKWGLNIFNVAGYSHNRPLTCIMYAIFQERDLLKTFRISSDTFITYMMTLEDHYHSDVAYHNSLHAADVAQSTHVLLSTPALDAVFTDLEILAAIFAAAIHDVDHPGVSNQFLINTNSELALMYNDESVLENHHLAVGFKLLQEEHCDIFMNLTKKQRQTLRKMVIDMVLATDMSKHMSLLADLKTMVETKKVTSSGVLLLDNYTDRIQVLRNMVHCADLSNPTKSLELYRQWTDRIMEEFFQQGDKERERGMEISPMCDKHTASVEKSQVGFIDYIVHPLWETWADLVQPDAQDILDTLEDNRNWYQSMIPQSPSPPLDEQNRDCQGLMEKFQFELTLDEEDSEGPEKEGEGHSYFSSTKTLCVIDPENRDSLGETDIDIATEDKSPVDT
Assay type: biochemical
Text: Human recombinant PDE4B, in particular the 2B splice variant thereof (HSPDE4B2B), is disclosed in WO 94/20079 and also M. M. McLaughlin et al., “A low Km, rolipram-sensitive, cAMP-specific phosphodiesterase from human brain: cloning and expression of cDNA, biochemical characterisation of recombinant protein, and tissue distribution of mRNA”, J. Biol. Chem., 1993, 268, 6470-6476. For example, in Example 1 of WO 94/20079, human recombinant PDE4B is described as being expressed in the PDE-deficient yeast Saccharomyces cerevisiae strain GL62, e.g. after induction by addition of 150 uM CuSO4, and 100,000×g supernatant fractions of yeast cell lysates are described for use in the harvesting of PDE4B enzyme.
The ability of compounds to inhibit catalytic activity at PDE4B or 4D (human recombinant), PDE3 (from bovine aorta), PDE5 (human recombinant) or PDE6 (from bovine retina) can optionally be determined by Scintillation Proximity Assay (SPA) in 96-well format.
Test compounds (as a solution in DMSO, preferably about 2 microlitre (ul) volume of DMSO solution) are preincubated at ambient temperature (room temperature, e.g. 19-23° C.) in Wallac Isoplates (code 1450-514) with PDE enzyme in 50 mM Tris-HCl buffer pH 7.5, 8.3 mM MgCl2, 1.7 mM EGTA, 0.05% (w/v) bovine serum albumin for 10-30 minutes (usually 30 minutes). The enzyme concentration is adjusted so that no more than 20% hydrolysis of the substrate defined below occurs in control wells without compound, during the incubation. For the PDE3, PDE4B and PDE4D assays, [5′,8-3H]Adenosine 3′,5′-cyclic phosphate (Amersham Pharmacia Biotech, code TRK.559; or Amersham Biosciences UK Ltd, Pollards Wood, Chalfont St Giles, Buckinghamshire HP8 4SP, UK) is added to give 0.05 uCi per well and about 10 nM final concentration. For the PDE5 and PDE6 assays, [8-^3H]Guanosine 3′,5′-cyclic phosphate (Amersham Pharmacia Biotech, code TRK.392) is added to give 0.05 uCi per well and about 36 nM final concentration. Plates containing assay mixture, preferably approx. 100 ul volume of assay mixture, are mixed on an orbital shaker for 5 minutes and incubated at ambient temperature for 1 hour. Phosphodiesterase SPA beads (Amersham Pharmacia Biotech, code RPNQ 0150) are added (about 1 mg per well) to terminate the assay. Plates are sealed and shaken and allowed to stand at ambient temperature for 35 minutes to 1 hour (preferably 35 minutes) to allow the beads to settle. Bound radioactive product is measured using a WALLAC TRILUX 1450 Microbeta scintillation counter. For inhibition curves, 10 concentrations (1.5 nM-30 uM) of each compound are assayed. Curves are analysed using ActivityBase and XLfit (ID Business Solutions Limited, 2 Ocean Court, Surrey Research Park, Guildford, Surrey GU2 7QB, United Kingdom) Results are expressed as pIC50 values.
The ability of compounds to inhibit catalytic activity at PDE4B (human recombinant) or PDE4D (human recombinant) can optionally be determined by IMAP Fluorescence Polarisation (FP) assay (IMAP Explorer kit, available from Molecular Devices Corporation, Sunnydale, Calif., USA; Molecular Devices code: R8062) in 384-well format.
The IMAP FP assay is able to measure PDE activity in an homogenous, non-radioactive assay format. The FP assay uses the ability of immobilised trivalent metal cations, coated onto nanoparticles (tiny beads), to bind the phosphate group of Fl-AMP that is produced on the hydrolysis of fluorescein-labelled (Fl) cyclic adenosine mono-phosphate (Fl-cAMP) to the non-cyclic Fl-AMP form. […] Binding of Fl-AMP product to the beads (coated with the immobilised trivalent cations) slows the rotation of the bound Fl-AMP and leads to an increase in the fluorescence polarisation ratio of parallel to perpendicular light. Inhibition of the PDE reduces/inhibits this signal increase. […]
With `CCC(NC(=O)c1cnc2c(cnn2CC)c1N[C@H]1CCN(C(N)=O)C1)c1ccc(C)cc1C` (mixture of isomers) [Example 360, 4-{[(3S)-1-(aminocarbonyl)pyrrolidin-3-yl]amino}-N-[1-(2,4-dimethylphenyl)propyl]-1-ethyl-1H-pyrazolo[3,4-b]pyridine-5-carboxamide] the “PDE4B pIC50 (±about 0.5)” value was 7.2 to 9.0. `CCC(NC(=O)c1cnc2c(cnn2CC)c1N[C@@H]1CCN(C(N)=O)C1)c1ccc(C)cc1C` (mixture of isomers) [Example 364, 4-{[(3R)-1-(aminocarbonyl)pyrrolidin-3-yl]amino}-N-[1-(2,4-dimethylphenyl)propyl]-1-ethyl-1H-pyrazolo[3,4-b]pyridine-5-carboxamide] was tested, and the “PDE4B pIC50 (±about 0.5)” value was 7.2 to 9.0. In the case of `CC[C@@H](NC(=O)c1cnc2c(cnn2CC)c1NC1CCC(C(C)=O)CC1)c1ccc(C)cc1C` (mixture of isomers) [Example 371, 4-[(4-acetylcyclohexyl)amino]-N-[(1R)-1-(2,4-dimethylphenyl)propyl]-1-ethyl-1H-pyrazolo[3,4-b]pyridine-5-carboxamide], the “PDE4B pIC50 (±about 0.5)” value is reported as 6.9 to 7.9. For `CCn1ncc2c(N[C@H]3CCC[C@H](O)C3)c(C(=O)N[C@H](C)c3ccc(Br)cc3)cnc21` (mixture of isomers) [Example 377, N-[(1R)-1-(4-bromophenyl)ethyl]-1-ethyl-4-{[trans-3-hydroxycyclohexyl]amino}-1H-pyrazolo[3,4-b]pyridine-5-carboxamide], the “PDE4B pIC50 (±about 0.5)” value was 7.0 to 8.3. For `CCn1ncc2c(N[C@H]3CCC[C@H](O)C3)c(C(=O)N[C@@H](C)c3ccc(C)cc3C)cnc21` (racemic) [Example 375, N-[(1S)-1-(2,4-dimethylphenyl)ethyl]-1-ethyl-4-{[trans-3-hydroxycyclohexyl]amino}-1H-pyrazolo[3,4-b]pyridine-5-carboxamide], the “PDE4B pIC50 (±about 0.5)” value was 7.0 to 8.3. With `CCn1ncc2c(N[C@H]3CCC[C@H](O)C3)c(C(=O)N[C@H](C)c3ccc(C)cc3C)cnc21` (racemic) [Example 376, N-[(1R)-1-(2,4-dimethylphenyl)ethyl]-1-ethyl-4-{[trans-3-hydroxycyclohexyl]amino}-1H-pyrazolo[3,4-b]pyridine-5-carboxamide] the “PDE4B pIC50 (±about 0.5)” value was 7.0 to 8.3. In the case of `CCC(NC(=O)c1cnc2c(cnn2CC)c1NC1CCNCC1)c1ccc(C)cc1C.Cl` (racemic) [Example 382, N-[1-(2,4-dimethylphenyl)propyl]-1-ethyl-4-(4-piperidinylamino)-1H-pyrazolo[3,4-b]pyridine-5-carboxamide hydrochloride], the “PDE4B pIC50 (±about 0.5)” value is reported as 8.0 to 9.45. In the case of `CCC(NC(=O)c1cnc2c(cnn2CC)c1N[C@H]1C[C@@H](C(N)=O)C1)c1ccc(C)cc1C` (relative stereo) [Example 369, 4-{[cis-3-(aminocarbonyl)cyclobutyl]amino}-N-[1-(2,4-dimethylphenyl)propyl]-1-ethyl-1H-pyrazolo[3,4-b]pyridine-5-carboxamide], the “PDE4B pIC50 (±about 0.5)” value is reported as 8.0 to 9.45. `CCC(NC(=O)c1cnc2c(cnn2CC)c1N[C@H]1CCC[C@H](O)C1)c1ccc(C)c(C)c1` (relative stereo) [Example 378, N-[1-(3,4-dimethylphenyl)propyl]-1-ethyl-4-{[trans-3-hydroxycyclohexyl]amino}-1H-pyrazolo[3,4-b]pyridine-5-carboxamide] was tested, and the “PDE4B pIC50 (±about 0.5)” value was 7.0 to 8.3. With `CCn1ncc2c(NC3CCN(C(N)=O)CC3)c(C(=O)N[C@H](C)c3ccc(C)cc3)cnc21` [Example 308, 4-{[1-(aminocarbonyl)-4-piperidinyl]amino}-1-ethyl-N-[(1R)-1-(4-methylphenyl)ethyl]-1H-pyrazolo[3,4-b]pyridine-5-carboxamide] the “PDE4B pIC50 (±about 0.5)” value was 8.0 to 9.45. With `CCn1ncc2c(NC3CCN(C(N)=O)CC3)c(C(=O)N[C@H](C)c3ccccc3)cnc21` [Example 309, 4-{[1-(aminocarbonyl)-4-piperidinyl]amino}-1-ethyl-N-[(1R)-1-phenylethyl]-1H-pyrazolo[3,4-b]pyridine-5-carboxamide] the “PDE4B pIC50 (±about 0.5)” value was 8.0 to 9.45. `CCn1ncc2c(NC3CCN(C(N)=O)CC3)c(C(=O)N[C@H](C)c3ccc(Br)cc3)cnc21` [Example 310, 4-{[1-(aminocarbonyl)-4-piperidinyl]amino}-N-[(1R)-1-(4-bromophenyl)ethyl]-1-ethyl-1H-pyrazolo[3,4-b]pyridine-5-carboxamide] was tested, and the “PDE4B pIC50 (±about 0.5)” value was 8.0 to 9.45. With `CCC(NC(=O)c1cnc2c(cnn2CC)c1NC1CCN(C(N)=O)CC1)c1ccc(C)cc1C` (stereo not drawn) [Example 311, 4-{[1-(aminocarbonyl)-4-piperidinyl]amino}-N-[1-(2,4-dimethylphenyl)propyl]-1-ethyl-1H-pyrazolo[3,4-b]pyridine-5-carboxamide] the “PDE4B pIC50 (±about 0.5)” value was 8.0 to 9.45. `CCC(NC(=O)c1cnc2c(cnn2CC)c1NC1CCN(C(N)=O)CC1)c1ccc(C)c(Cl)c1` (stereo not drawn) [Example 312, 4-{[1-(aminocarbonyl)-4-piperidinyl]amino}-N-[1-(3-chloro-4-methylphenyl)propyl]-1-ethyl-1H-pyrazolo[3,4-b]pyridine-5-carboxamide] was tested, and the “PDE4B pIC50 (±about 0.5)” value was 8.0 to 9.45. `CCC(NC(=O)c1cnc2c(cnn2CC)c1NC1CCN(C(N)=O)CC1)c1ccc(Cl)cc1F` (stereo not drawn) [Example 313, 4-{[1-(aminocarbonyl)-4-piperidinyl]amino}-N-[1-(4-chloro-2-fluorophenyl)propyl]-1-ethyl-1H-pyrazolo[3,4-b]pyridine-5-carboxamide] was tested, and the “PDE4B pIC50 (±about 0.5)” value was 8.0 to 9.45. With `CCn1ncc2c(NC3CCC(C(N)=O)CC3)c(C(=O)N[C@H](C)c3ccccc3)cnc21` (stereo partly drawn) [Example 314, 4-{[4-(aminocarbonyl)cyclohexyl]amino}-1-ethyl-N-[(1R)-1-phenylethyl]-1H-pyrazolo[3,4-b]pyridine-5-carboxamide] the “PDE4B pIC50 (±about 0.5)” value was 8.0 to 9.45. For `CC[C@@H](NC(=O)c1cnc2c(cnn2CC)c1NC1CCOCC1)c1ccc(C)cc1C` [Example 316, N-[(1R)-1-(2,4-dimethylphenyl)propyl]-1-ethyl-4-(tetrahydro-2H-pyran-4-ylamino)-1H-pyrazolo[3,4-b]pyridine-5-carboxamide], the “PDE4B pIC50 (±about 0.5)” value was 9.0 to 10.1. For `CCn1ncc2c(NC3CCOCC3)c(C(=O)N[C@H](C)c3cc(C)ccc3C)cnc21` [Example 317, N-[(1R)-1-(2,5-dimethylphenyl)ethyl]-1-ethyl-4-(tetrahydro-2H-pyran-4-ylamino)-1H-pyrazolo[3,4-b]pyridine-5-carboxamide], the “PDE4B pIC50 (±about 0.5)” value was 9.0 to 10.1. With `CCn1ncc2c(NC3CCOCC3)c(C(=O)N[C@H](C)c3c(C)cc(C)cc3C)cnc21` [Example 318, 1-ethyl-4-(tetrahydro-2H-pyran-4-ylamino)-N-[(1R)-1-(2,4,6-trimethylphenyl)ethyl]-1H-pyrazolo[3,4-b]pyridine-5-carboxamide] the “PDE4B pIC50 (±about 0.5)” value was 9.0 to 10.1. `CCc1ccccc1[C@@H](C)NC(=O)c1cnc2c(cnn2CC)c1NC1CCOCC1` [Example 319, 1-ethyl-N-[(1R)-1-(2-ethylphenyl)ethyl]-4-(tetrahydro-2H-pyran-4-ylamino)-1H-pyrazolo[3,4-b]pyridine-5-carboxamide] was tested, and the “PDE4B pIC50 (±about 0.5)” value was 9.0 to 10.1. With `CCc1ccc([C@@H](C)NC(=O)c2cnc3c(cnn3CC)c2NC2CCOCC2)cc1` [Example 320, 1-ethyl-N-[(1R)-1-(4-ethylphenyl)ethyl]-4-(tetrahydro-2H-pyran-4-ylamino)-1H-pyrazolo[3,4-b]pyridine-5-carboxamide] the “PDE4B pIC50 (±about 0.5)” value was 9.0 to 10.1.
